Results taken from PubChem BioAssay AID2147 (National Center for Advancing Translational Sciences (NCATS), 2009).
About 3,600 (1.6%) of roughly 230,000 compounds were called active. This list was built around the results that the source calls inconclusive (neither active nor inactive); the mix of calls is not that of the screen. Calls come from the whole dose curve; as a rule, active = well fitted inhibition curve with a large enough effect (not every such curve was filed as active); inconclusive = small, poorly fitted or top-dose-only effect, or another doubt; inactive = no such curve, though single readings can be large or run the other way. Potencies beside an inconclusive call are fits to weak or partial responses and may not hold up. Where a structure was tested more than once in an assay, its records may differ in their call.

target: Lysine-specific demethylase 4E (Homo sapiens) (UniProt B2RXH2); assay: qHTS Assay for Inhibitors of Human Jumonji Domain Containing 2E (JMJD2E); conditions: JMJD2E catalytic domain, FDH-coupled NADH fluorescence (FDH is formaldehyde dehydrogenase); series mostly up to 57.1 µM
Note: nearly all actives have a fitted effect of over 50% in size.
Potency is the fitted concentration of half-maximal effect; tags give direction and shape of the fitted curve.

Chain of UniProt B2RXH2 (B2RXH2 whole entry, looked up, the tested form may be a part): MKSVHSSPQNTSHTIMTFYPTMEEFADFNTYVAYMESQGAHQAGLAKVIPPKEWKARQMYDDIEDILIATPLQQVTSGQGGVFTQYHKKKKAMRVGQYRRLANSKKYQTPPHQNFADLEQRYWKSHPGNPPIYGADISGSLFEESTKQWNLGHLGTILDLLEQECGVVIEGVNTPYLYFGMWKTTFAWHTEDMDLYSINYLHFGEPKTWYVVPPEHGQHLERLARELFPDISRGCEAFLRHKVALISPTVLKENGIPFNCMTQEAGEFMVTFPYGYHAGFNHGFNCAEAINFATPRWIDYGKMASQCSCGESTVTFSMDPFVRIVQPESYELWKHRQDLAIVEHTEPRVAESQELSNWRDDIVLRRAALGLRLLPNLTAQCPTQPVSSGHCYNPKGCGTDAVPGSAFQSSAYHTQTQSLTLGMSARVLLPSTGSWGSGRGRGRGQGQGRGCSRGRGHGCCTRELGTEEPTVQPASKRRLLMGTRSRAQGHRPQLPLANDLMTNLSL

For `Cc1nc(-c2ccc(S(=O)(=O)NCc3cccnc3)s2)cs1`, which Potency is on record?
The Potency was inconclusive: 35.5 µM [inhibitor, single point].

`CCc1sc(C(=O)Nc2ccc(NC(C)=O)cc2)cc1C` was tested. Which Potency did it give?
Its Potency is inconclusive: 35.5 µM [inhibitor, single point].

For `O=C(NCc1ccc(F)cc1)c1cnc2sccn2c1=O`, which Potency is on record?
The Potency was inconclusive: 28.2 µM [inhibitor, partial curve].

Which Potency does the source give for `CCN(CC)S(=O)(=O)N1CCC(C(=O)NCc2ccc(C)cc2)CC1` here?
Its Potency is “inactive”.

Which Potency does the source give for `Cn1c(N/N=C/c2c[nH]c3ccccc23)nc2ccccc21` here?
Its Potency is inconclusive: 39.8 µM [inhibitor, single point].

With `Cc1ncc(CO)c(/C=N/NC(=O)c2cc(Br)ccc2O)c1O` as the compound, how does the Potency read?
Its Potency is inconclusive: 25.1 µM [inhibitor, partial curve].

How did the Potency turn out when `Cc1nc(SCC(=O)c2cc3ccccc3oc2=O)c(C#N)c(-c2cccs2)c1C(=O)Nc1ccccc1` was run?
Its Potency is inconclusive: 39.8 µM [inhibitor, single point].

How did the Potency turn out when `O=C(O)CCn1c(=O)[nH]c2ccccc2c1=O` was run?
The Potency was inconclusive: 35.5 µM [inhibitor, partial curve].

Which Potency does the source give for `Cn1c(C(=O)O)c(CC(=O)Nc2ccc(F)cc2F)c2ccccc21` here?
Its Potency is “inactive”.

`Cc1c(OCC(=O)NC(Cc2c[nH]c3ccc(O)cc23)C(=O)O)ccc2c3c(c(=O)oc12)CCC3` (configuration not stated) was tested. Which Potency did it give?
Its Potency is inconclusive: 28.2 µM [inhibitor, single point].

`Cc1ccc2[nH]c(=O)c(CN(Cc3nnnn3C3CCCC3)C3CCCCC3)cc2c1` was tested. Which Potency did it give?
The Potency was inconclusive: 28.2 µM [inhibitor, single point].

`Cc1nc2ccc(NC(=S)N3CCOCC3)cc2nc1C` was tested. Which Potency did it give?
The Potency was inconclusive: 25.1 µM [inhibitor, partial curve].

`O=C(N/N=C/C(Br)=C\c1ccccc1)c1ccco1` was tested. Which Potency did it give?
The Potency was “inactive”.

For `Oc1ccccc1N=Cc1c(O)ccc2ccccc12`, which Potency is on record?
The Potency was active: 25.1 µM.

With `CN(Cc1ccc(Cl)cc1)C(=O)CCl` as the compound, how does the Potency read?
Its Potency is “inactive”.

`O=C(COC(=O)c1cc2ccccc2cc1O)NC(=O)NCc1ccco1` was tested. Which Potency did it give?
The Potency was inconclusive: 31.6 µM [inhibitor, single point].

Which Potency does the source give for `O=C(CSc1nnc2ccccn12)NCc1ccco1` here?
Its Potency is inconclusive: 7.08 µM [inhibitor, full curve].

`O=C(c1ccc(Cl)cc1)c1ccc(OCC(=O)N2CCOCC2)cc1` was tested. Which Potency did it give?
The Potency was inconclusive: 39.8 µM [inhibitor, single point].

How did the Potency turn out when `Cc1ccc2c(c1)C(=O)C(=O)N2CCCOc1ccccc1C` was run?
Its Potency is inconclusive: 35.5 µM [inhibitor, single point].

With `CCOC(=O)CC1=C(C(=O)OCC)C(c2ccncc2)C(C#N)=C(N)O1` (configuration not stated) as the compound, how does the Potency read?
The Potency was inconclusive: 22.4 µM [inhibitor, partial curve].

With `CCOC(=O)c1ccc(NS(=O)(=O)c2ccc3[nH]c(=O)[nH]c3c2)cc1` as the compound, how does the Potency read?
Its Potency is “inactive”.

`CCCn1c(C)cc(C(=O)COC(=O)c2nccnc2N)c1C` was tested. Which Potency did it give?
Its Potency is inconclusive: 28.2 µM [inhibitor, partial curve].

With `O=C1C2C3C=CC(CO)(O3)C2C(=O)N1c1ccccc1-c1ccccc1` (configuration not stated) as the compound, how does the Potency read?
The Potency was “inactive”.

With `CC1C2CC(CC1(C)C)N(C(=O)Nc1ccc3nccnc3c1)C2` (configuration not stated) as the compound, how does the Potency read?
Its Potency is inconclusive: 28.2 µM [inhibitor, partial curve].

Which Potency does the source give for `O=S1(=O)CC=C(CSC(=S)NC2CCS(=O)(=O)C2)C1` (configuration not stated) here?
Its Potency is “inactive”.

Which Potency does the source give for `COc1ccc(-c2cc(C(=O)Nc3cc(OC)cc(C(=O)Nc4cccc(C(F)(F)F)c4)c3)[nH]n2)cc1` here?
The Potency was inconclusive: 39.8 µM [inhibitor, single point].

Which Potency does the source give for `COc1ccc(NC(=O)Nc2nc(C)cc(C)n2)c(OC)c1` here?
Its Potency is “inactive”.

How did the Potency turn out when `CNCc1ccc(OCc2ccccc2)c(OC)c1` was run?
Its Potency is “inactive”.

How did the Potency turn out when `CC1(C)CNc2cc(N)ccc2S1` was run?
Its Potency is inconclusive: 0.398 µM [inhibitor, partial curve, poor fit].

How did the Potency turn out when `CCS(=O)(=O)Nc1ccccc1C(N)=O` was run?
The Potency was inconclusive: 15.8 µM [inhibitor, partial curve].

For `O=C(Nc1ncc(Cc2ccc(SC(F)F)cc2)s1)c1ccccc1`, which Potency is on record?
The Potency was inconclusive: 22.4 µM [inhibitor, single point].

With `CCOC(=O)c1[nH]c2ccc(OC)cc2c1NC(=O)CCN1CCC(C)CC1` as the compound, how does the Potency read?
The Potency was inconclusive: 31.6 µM [inhibitor, partial curve].

`CCOC(=O)N1CCC(Nc2nc3ccccc3nc2NS(=O)(=O)c2ccc(Cl)cc2)CC1` was tested. Which Potency did it give?
Its Potency is inconclusive: 25.1 µM [inhibitor, partial curve].

`CC(C)C1CC(CCN)(c2ccccc2)CCO1` (configuration not stated) was tested. Which Potency did it give?
The Potency was inconclusive: 39.8 µM [inhibitor, single point].

Which Potency does the source give for `COCCN1C=C(C(=O)OC)C(c2ccc3c(c2)OCO3)C(C(=O)OC)=C1` here?
The Potency was inconclusive: 28.2 µM [inhibitor, partial curve].

How did the Potency turn out when `O=C(Nc1cccc2c1C(=O)NC2=O)c1ccc(N2C(=O)CCC2=O)cc1` was run?
The Potency was inconclusive: 12.6 µM [inhibitor, partial curve].

For `O=C(CC1Nc2ccccc2NC1=O)c1ccccc1` (configuration not stated), which Potency is on record?
The Potency was inconclusive: 12.6 µM [inhibitor, partial curve].

With `COc1ccc2[nH]c(=O)c(C(=O)O)cc2c1` as the compound, how does the Potency read?
Its Potency is inconclusive: 28.2 µM [inhibitor, partial curve].

For `Cc1ccc(S(=O)(=O)N(C)C)cc1NC(=O)c1ccc2ccccc2n1`, which Potency is on record?
Its Potency is inconclusive: 35.5 µM [inhibitor, single point].

Which Potency does the source give for `CCOC(=O)c1c(C)n(C)c2cc(-c3cccc(C(F)(F)F)c3)c(O)cc12` here?
The Potency was inconclusive: 12.6 µM [inhibitor, partial curve].

For `Nc1nc(N2CCCCC2)nc2ccccc12`, which Potency is on record?
The Potency was inconclusive: 31.6 µM [inhibitor, partial curve].

`CCN(CC)c1cccc(OC2=NS(=O)(=O)c3ccccc32)c1` was tested. Which Potency did it give?
Its Potency is inconclusive: 39.8 µM [inhibitor, single point].

For `O=C1NC(=S)N(C(=O)c2ccc(F)cc2)/C1=C/c1ccccc1`, which Potency is on record?
Its Potency is “inactive”.

With `CCOCCCNC(=O)C(C)NS(=O)(=O)c1ccc(C)cc1` (configuration not stated) as the compound, how does the Potency read?
Its Potency is inconclusive: 39.8 µM [inhibitor, single point].

For `CCSc1nnc(NC(=O)c2cccc(OCc3c(C)noc3C)c2)s1`, which Potency is on record?
Its Potency is inconclusive: 39.8 µM [inhibitor, single point].

`CC1CCCCC1NC(=O)/C=C/c1nc2ccccc2s1` (configuration not stated) was tested. Which Potency did it give?
The Potency was inconclusive: 31.6 µM [inhibitor, partial curve].

With `CCOc1cc2[nH]c(=O)n(CCCN3CCN(c4ccc(OC)cc4)CC3)c(=O)c2cc1OCC` as the compound, how does the Potency read?
The Potency was inconclusive: 25.1 µM [inhibitor, partial curve].

`COc1ccccc1-n1c(-c2ccccc2)n[nH]c1=S` was tested. Which Potency did it give?
The Potency was inconclusive: 31.6 µM [inhibitor, partial curve].

With `COc1ccc(CCNC(=O)c2cc(-c3ccc(C)cc3O)n[nH]2)cc1OC` as the compound, how does the Potency read?
Its Potency is “inactive”.

`COc1ccc(C(=O)c2ccc(N3CCN(C(=O)c4ccc(F)cc4)CC3)c(F)c2)cc1Br` was tested. Which Potency did it give?
Its Potency is “inactive”.

Which Potency does the source give for `CC(C)CC1(C)N=C(c2ccccc2)C(=S)N1` (configuration not stated) here?
Its Potency is “inactive”.

Which Potency does the source give for `COc1ccc(/C=C2\SC(=O)N(CC(=O)NNC(=O)c3ccccc3O)C2=O)cc1` here?
The Potency was inconclusive: 14.1 µM [inhibitor, partial curve].

With `Cc1ccc(-n2c(C)c3c(C)nnc(C)c3c2C)cc1N` as the compound, how does the Potency read?
The Potency was inconclusive: 3.55 µM [inhibitor, partial curve].

How did the Potency turn out when `O=C(NC1CCCCC1)C(=S)N1CCCC1` was run?
The Potency was “inactive”.

`COc1ccc(Sc2ccc(NC(=O)c3ccccc3Cl)cc2C#N)cc1` was tested. Which Potency did it give?
The Potency was inconclusive: 35.5 µM [inhibitor, single point].

Which Potency does the source give for `c1ccc(Nc2ncnc3c2oc2ccccc23)cc1` here?
The Potency was inconclusive: 28.2 µM [inhibitor, partial curve].

Which Potency does the source give for `Cc1c(NC(=S)N/N=C/c2ccc(N(C)C)cc2)c(=O)n(-c2ccccc2)n1C` here?
Its Potency is inconclusive: 22.4 µM [inhibitor, partial curve].

Which Potency does the source give for `CCCCCc1n[nH]c2c1CCCC2` here?
The Potency was “inactive”.

Which Potency does the source give for `CCN(Cc1ccccc1)C(=O)C1CCN(Cc2sccc2C)CC1` here?
Its Potency is inconclusive: 31.6 µM [inhibitor, single point].

Which Potency does the source give for `COc1ccc(C2CC(c3ccccc3)=NN2C(=O)COC(=O)c2nc3nc(C)cc(C)n3n2)cc1` (configuration not stated) here?
Its Potency is inconclusive: 35.5 µM [inhibitor, single point].

Which Potency does the source give for `COc1ccc(C)cc1NCC(=O)Nc1ccc(C(C)(C)C)cc1` here?
Its Potency is “inactive”.

Which Potency does the source give for `CC1(C)CC(=O)C(N=Nc2cccc(S(=O)(=O)N3CCOCC3)c2)=C(O)C1` here?
Its Potency is “inactive”.

Which Potency does the source give for `N#Cc1cc2c(nc1SCc1ccncc1)CCC2` here?
The Potency was inconclusive: 35.5 µM [inhibitor, single point].

With `CC(=O)N[C@@H](CS)C(=O)O` as the compound, how does the Potency read?
The Potency was active: 25.1 µM.

How did the Potency turn out when `O=C(NC(=S)Nc1ccc(S(=O)(=O)N2CCCCC2)cc1)c1cccs1` was run?
Its Potency is inconclusive: 35.5 µM [inhibitor, single point].

`CCOc1cccc(N2C(=O)CC(N3CCN(c4nc5ccccc5s4)CC3)C2=O)c1` (configuration not stated) was tested. Which Potency did it give?
Its Potency is “inactive”.

`CN(C)C(=O)CSc1ncnc2scc(-c3ccccc3)c12` was tested. Which Potency did it give?
The Potency was “inactive”.

With `CCCCCCCOc1ccc(-c2ccc(C#N)cn2)cc1` as the compound, how does the Potency read?
Its Potency is inconclusive: 22.4 µM [inhibitor, partial curve].

How did the Potency turn out when `COc1ccc(-n2cc(CN(C)C(C)c3ccncn3)c(-c3cccc(F)c3)n2)cc1` (configuration not stated) was run?
The Potency was inconclusive: 35.5 µM [inhibitor, single point].

With `COc1cccc(C2=CC(c3ccccc3)n3ncnc3N2)c1` (configuration not stated) as the compound, how does the Potency read?
Its Potency is “inactive”.

How did the Potency turn out when `N#CCSc1nc2c(c(=O)n1Cc1ccco1)C1(CCCC1)Cc1ccccc1-2` was run?
Its Potency is inconclusive: 39.8 µM [inhibitor, single point].

How did the Potency turn out when `NCc1oc(-c2ccccc2)cc1C(=O)O` was run?
Its Potency is inconclusive: 28.2 µM [inhibitor, partial curve].
